Test [1] has as its target Flag-tagged MyD88 (mouse) (UniProt P22366). Nature of the test: co-IP; HEK293 cells co-transfected with Flag-MyD88 and HA-GPR108 together with HA-TLR4; anti-flag M2 beads; blots with anti-Flag and anti-HA.
Test [2] shares this target. The test is described as follows: co-IP; HEK293 or HEK293T cells co-transfected with Flag- and HA-tagged proteins; lysis buffer 10 mM Tris pH 7.4, 100 mM NaCl, 1 mM EDTA, 1 mM EGTA, 1% Triton X-100, 10% glycerol, 0.1% SDS, 0.5% deoxycholate; anti-flag M2 agarose 2 h at 4°C; blots with anti-HA and anti-Flag (Fig 6A: cells stimulated with LPS for different times, with or without GPR108, blot with anti-MyD88).

Amino acid sequences for entries named in this document (tags omitted). Residues count along the entry.
UniProt P22366: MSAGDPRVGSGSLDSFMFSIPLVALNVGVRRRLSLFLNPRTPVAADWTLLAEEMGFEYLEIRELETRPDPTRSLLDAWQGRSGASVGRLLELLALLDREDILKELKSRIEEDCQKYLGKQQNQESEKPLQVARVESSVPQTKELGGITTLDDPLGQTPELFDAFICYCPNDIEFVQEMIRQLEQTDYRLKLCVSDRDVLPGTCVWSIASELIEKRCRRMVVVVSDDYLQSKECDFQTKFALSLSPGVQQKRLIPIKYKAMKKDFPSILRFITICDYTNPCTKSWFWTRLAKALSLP
UniProt Q99JY1: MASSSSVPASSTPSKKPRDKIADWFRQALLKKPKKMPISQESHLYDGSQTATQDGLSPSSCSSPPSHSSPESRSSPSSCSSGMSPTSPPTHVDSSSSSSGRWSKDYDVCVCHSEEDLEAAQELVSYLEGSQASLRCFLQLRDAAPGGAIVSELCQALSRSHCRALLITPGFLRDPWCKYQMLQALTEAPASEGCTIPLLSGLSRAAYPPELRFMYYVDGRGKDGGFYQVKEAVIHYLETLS
UniProt Q9QUK6, residues 26-835: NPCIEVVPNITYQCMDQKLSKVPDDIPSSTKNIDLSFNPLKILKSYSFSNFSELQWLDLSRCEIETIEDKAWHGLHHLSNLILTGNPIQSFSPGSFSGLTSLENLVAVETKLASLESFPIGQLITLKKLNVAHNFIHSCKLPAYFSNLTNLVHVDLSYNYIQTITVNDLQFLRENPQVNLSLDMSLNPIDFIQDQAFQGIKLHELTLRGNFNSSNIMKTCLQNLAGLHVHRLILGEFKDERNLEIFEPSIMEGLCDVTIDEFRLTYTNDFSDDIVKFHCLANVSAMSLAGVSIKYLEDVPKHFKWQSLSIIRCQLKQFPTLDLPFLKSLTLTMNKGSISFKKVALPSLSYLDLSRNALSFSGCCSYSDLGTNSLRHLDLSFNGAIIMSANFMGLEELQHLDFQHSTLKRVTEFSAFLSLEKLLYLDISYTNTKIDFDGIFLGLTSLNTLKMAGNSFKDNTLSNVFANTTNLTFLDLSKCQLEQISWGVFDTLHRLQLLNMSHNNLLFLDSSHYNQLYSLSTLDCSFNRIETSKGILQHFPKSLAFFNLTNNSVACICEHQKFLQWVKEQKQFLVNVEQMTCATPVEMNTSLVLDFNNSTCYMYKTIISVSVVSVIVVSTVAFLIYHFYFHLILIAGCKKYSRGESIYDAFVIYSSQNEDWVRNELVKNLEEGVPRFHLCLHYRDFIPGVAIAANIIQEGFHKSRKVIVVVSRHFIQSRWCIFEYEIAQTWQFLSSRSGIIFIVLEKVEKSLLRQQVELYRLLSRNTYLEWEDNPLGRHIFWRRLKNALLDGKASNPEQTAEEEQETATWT

Test [3] concerns the target Flag-tagged TIRAP (mouse) (UniProt Q99JY1). The test is described as above.
The target of the next test is T1, Flag-tagged TLR3 (mouse) (UniProt Q99MB1).
T1 sequence: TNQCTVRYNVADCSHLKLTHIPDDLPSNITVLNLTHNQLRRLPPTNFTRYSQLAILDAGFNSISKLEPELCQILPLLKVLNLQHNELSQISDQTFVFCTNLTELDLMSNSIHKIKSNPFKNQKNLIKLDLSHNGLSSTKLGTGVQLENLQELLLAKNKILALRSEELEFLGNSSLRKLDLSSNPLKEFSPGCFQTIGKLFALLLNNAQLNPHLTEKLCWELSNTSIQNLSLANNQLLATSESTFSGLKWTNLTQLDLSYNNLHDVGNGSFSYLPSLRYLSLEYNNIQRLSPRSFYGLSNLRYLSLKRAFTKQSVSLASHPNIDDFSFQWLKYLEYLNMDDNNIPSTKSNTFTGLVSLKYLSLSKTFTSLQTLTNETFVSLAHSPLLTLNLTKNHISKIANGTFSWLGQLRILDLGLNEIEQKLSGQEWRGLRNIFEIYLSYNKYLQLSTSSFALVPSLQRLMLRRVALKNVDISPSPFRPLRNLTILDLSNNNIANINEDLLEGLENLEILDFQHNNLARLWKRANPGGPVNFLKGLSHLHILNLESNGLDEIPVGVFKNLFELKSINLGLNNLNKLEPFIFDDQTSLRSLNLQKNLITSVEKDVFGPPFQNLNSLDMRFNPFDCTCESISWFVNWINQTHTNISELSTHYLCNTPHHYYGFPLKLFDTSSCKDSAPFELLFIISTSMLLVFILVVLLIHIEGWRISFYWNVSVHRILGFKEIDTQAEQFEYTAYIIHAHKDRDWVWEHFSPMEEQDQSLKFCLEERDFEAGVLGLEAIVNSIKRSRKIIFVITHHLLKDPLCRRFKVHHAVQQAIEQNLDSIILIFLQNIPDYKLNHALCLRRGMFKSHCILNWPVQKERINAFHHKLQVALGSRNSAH
The test is described as above.

The target in the next test is Flag-tagged TLR4 (mouse) (UniProt Q9QUK6). The description is as above.
A further test deals with T2, Flag-tagged TLR7 (mouse) (UniProt P58681).
T2 sequence: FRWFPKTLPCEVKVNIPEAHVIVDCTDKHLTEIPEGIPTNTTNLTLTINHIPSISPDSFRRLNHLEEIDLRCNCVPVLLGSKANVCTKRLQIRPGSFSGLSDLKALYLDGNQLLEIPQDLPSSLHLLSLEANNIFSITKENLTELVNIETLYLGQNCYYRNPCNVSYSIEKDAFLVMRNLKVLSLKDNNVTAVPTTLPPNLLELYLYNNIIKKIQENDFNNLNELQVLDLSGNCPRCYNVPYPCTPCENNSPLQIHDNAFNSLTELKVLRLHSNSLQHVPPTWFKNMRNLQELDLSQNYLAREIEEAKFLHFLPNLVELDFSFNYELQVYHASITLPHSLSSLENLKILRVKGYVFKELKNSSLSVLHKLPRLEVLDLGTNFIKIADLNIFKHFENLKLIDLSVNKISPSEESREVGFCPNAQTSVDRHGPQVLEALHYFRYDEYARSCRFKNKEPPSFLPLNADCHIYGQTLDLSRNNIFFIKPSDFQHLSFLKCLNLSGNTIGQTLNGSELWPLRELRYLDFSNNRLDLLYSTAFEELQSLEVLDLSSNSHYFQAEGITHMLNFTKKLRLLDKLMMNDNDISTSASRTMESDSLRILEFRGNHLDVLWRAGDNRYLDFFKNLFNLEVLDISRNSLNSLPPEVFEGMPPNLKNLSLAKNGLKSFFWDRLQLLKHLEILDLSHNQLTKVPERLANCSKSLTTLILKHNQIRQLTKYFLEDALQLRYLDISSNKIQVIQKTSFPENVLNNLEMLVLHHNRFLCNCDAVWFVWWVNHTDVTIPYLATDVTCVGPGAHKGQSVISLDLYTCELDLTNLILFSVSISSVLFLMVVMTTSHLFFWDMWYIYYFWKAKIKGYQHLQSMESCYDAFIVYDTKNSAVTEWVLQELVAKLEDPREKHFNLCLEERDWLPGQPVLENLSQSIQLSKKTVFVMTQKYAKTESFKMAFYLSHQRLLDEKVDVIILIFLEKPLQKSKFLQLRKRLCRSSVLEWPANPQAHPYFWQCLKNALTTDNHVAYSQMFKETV
Described as above.

Results are given in words; binding and its absence hold for the method and conditions named. In cells and extracts the contact can be indirect. Some results given as binding are weak or reduced against the parent protein; the word gives no strength. Tags and fused reporters may be left off the sequences shown.

B1: HA-tagged GPR108 (protein, UniProt Q91WD0 35-569)
chain: RIHRLTLTGEKRADIQLNSFGFYTNGSLEVELSLLRLSLQETEKKLPKVGFSLSRVRSGSVRSYSRRNSHECPLDRNSSNFLVLFLINIKDLQVQVRKYGEQKLFISPGLLPEAPTQSGPPKPDPAGTPKDNHVIHPSPTEMSAVKENQTAPQVSGDKTTPGEHRHSSERQPPTQDPSGKEKDQVLGLGHLNDSYNFSFHIVISSRAEEGQYSLNFHNCHNSIPGQEQPFDLTVMIREKNPEGFLSAAEIPLFKLYLIMSACFLAADIFWVSVLCKNTYSVFKIHWLMAALAFTKSVSLLFHSINYYFINSQGHPIEGLAVMHYITHLLKGALLFITIALIGSGWAFVKYMLSDKEKKIFGIVIPLQVLANVAYIVIESREEGASDYGLWKEILFLVDLICCGAILFPVVWSIRHLQDASGTDGKVAVNLARLKLFRHYYVMVICYIYFTRIIAILLQVAVPFQWQWLYQLLVESSTLAFFVLTGYKFQPAGDNPYLQLPQEDEEDVQMEQVMTDSGFREGLSKVNKTASGRELL
B1: the binding result in test [1] was “binds”; in test [2] it was “binds weakly”; in test [3], “binds weakly”; in the test with Flag-tagged TLR3 (mouse) it was “binds”; in the test with Flag-tagged TLR4 (mouse) it was “binds”; in the test with Flag-tagged TLR7 (mouse), “binds”.

(Values after article PMC6192633.)
